For six molecules, GI50 and TGI results are on record in PubChem BioAssay (NCI).

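48-hour exposure; five concentrations; linearly interpolated endpoints. GI50 marks 50% less growth. At the TGI there is no net growth.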

For this assay, the system named is NCI-H322M lung. In words: NCI-60 cell line screen, 48 h.

As to `Cc1ccc2c(n1)C(=O)C(Cl)=C(Nc1ccccc1C(=O)OC(C)(C)C)C2=O`, the GI50 is 10.7 µM and the TGI amounted to 54 µM.

In the case of `CN(C)CCCOc1c2ccc(Cl)cc2nc2c1oc1ccccc12`, the GI50 is 1.55 µM and the TGI is 10.4 µM.

Take `C=C1[C@@H](C)C2[C@H](Cc3ccccc3)NC(=O)[C@]23[C@H](OC(C)=O)/C=C/[C@@](C)(O)C(=O)[C@@H](C)C/C=C/[C@H]3[C@@H]1O` (some centres not stated): the GI50 was more than 16.7 µM and the TGI was more than 16.7 µM.

As to `CC[C@]12CC(C(=O)OC)=C3Nc4ccccc4[C@@]34CCN(C14)[C@@H]1c3cc4c(cc3O[C@@H]1[C@H]2O)NC1=C(C(=O)OC)C[C@@]2(CC)C3N(CC[C@@]143)C[C@H]1O[C@H]12` (some centres not stated), the GI50 was 0.455 µM and the TGI is more than 50 µM.

Consider `COc1ccc(/C=N/Nc2ccnc3cc(Cl)ccc23)cc1Cl`, for which the GI50 was 1.72 µM and the TGI worked out at 3.13 µM.

As to `CN1CCN(Cc2ccc(NC(=O)c3cncc(C#Cc4cnc5ccc(OCC(C)(C)O)nn45)c3)cc2C(F)(F)F)CC1`, the GI50 was 0.264 µM and the TGI amounted to 0.71 µM.
